Laboratory results from the RNAGym collection of RNA variant scans (doi:10.1093/nar/gkz1192).
Read counts are not given, so values of variants with three or more changes are uncertain.

B1: CPEB3 Ribozyme (parent)
chain: UAACAGGGGGCCACAGCAGAAGCGUUCACGUCGCAGCCCCUGUCAGAUUCUGGUGAAUCUGCGAAUUCUGCUGUAUAUCUC

Variants of: B1
Experiment: self-cleavage, relative activity (ratio to wild type); higher = more cleavage; in vitro, sequencing
In short: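 Barcoded CPEB3 ribozyme mutants, produced by rounds of error-prone PCR, self-cleaved while being transcribed with T7 RNA polymerase for 5 hours at 37°C and during a subsequent 15 min DNase I step before EDTA was added. Sequencing of template-switched cDNA on Illumina gave cleaved and total reads, and DNA sequencing assigned barcodes to variants. Each variant's relative activity is its cleaved/total read fraction divided by the unmutated ribozyme's fraction, averaged across three batches. A variant needed a minimum of 5 reads.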

Question: Which self-cleavage does the source give for UAACAGGGGGCCACAGCAGAAGCGUUCACGUCGCAGCCCCUGUCAGAUACUGGCGGAUCUGCGAAUUCUGCUGUAUAUCUC [U49A U54C A56G] here?
Answer: 0.26

Question: With UAACAGGGGGCCACAGCAGAAGCGUUCACGUCGCAGCCCCUGUCAGAUACUGGCGAAUCUGCGAGUUCUGCUGUAUAUCUC [U49A U54C A65G] as the variant, how does the self-cleavage read?
Answer: 0.24

Question: For UAACAGGGGGCCACAGCAGAAGCGUUCACGUCGCAGCCCCUGUCAGAUACUGGCGAAUCCGCGGAUUCUGCUGUAUACCUC [U49A U54C U60C A64G U78C], which self-cleavage is on record?
Answer: 0.15

Question: For UAACAGGGGGCCACAGCAGAAGCGUUCACGUCGCAGCCCCUGUCAGAUACUGGCGAAUCCGCGAAUUCUGCUGUAUAACUC [U49A U54C U60C U78A], which self-cleavage is on record?
Answer: 0.21

Question: Which self-cleavage does the source give for UAACAGGGGGCCACAGCAGAAGCGUUCACGUCGCAGCCCCUGUCAGAUACUGGCGAAUCUGCGAAUCCUGCUGUAUAUCUC [U49A U54C U67C] here?
Answer: 0.17

Question: Which self-cleavage does the source give for UAACAGGGGGCCACAGCAGAAGCGUUCACGUCGCAGCCCCUGUCAGAUACUGGUGAAACUGCGAAUUCUGCUGUCUAUCUC [U49A U58A A75C] here?
Answer: 0.19

Question: Which self-cleavage does the source give for UAACAGGGGGCCACAGCAGAAGCGUUCACGUCGCAGCCCCUGUCAGAUACUGGUGAACCUGUGAAUUCUGCUGUAUAUCUC [U49A U58C C62U] here?
Answer: 0.18

Question: With UAACAGGGGGCCACAGCAGAAGCGUUCACGUCGCAGCCCCUGUCAGAUACUGGUGAAUCCGCGAACUCUGCUGUAUAUCUC [U49A U60C U66C] as the variant, how does the self-cleavage read?
Answer: 0.15

Question: Which self-cleavage does the source give for UAACAGGGGGCCACAGCAGAAGCGUUCACGUCGCAGCCCCUGUCAGAUACUGGUGAAUCUGCGAACUCUGCUGUGUAUCUC [U49A U66C A75G] here?
Answer: 0.17

Question: For UAACAGGGGGCCACAGCAGAAGCGUUCACGUCGCAGCCCCUGUCAGAUACUGGUGAAUCUGCGAACUCUGCUGUAUAUCAC [U49A U66C U80A], which self-cleavage is on record?
Answer: 0.25

Question: With UAACAGGGGGCCACAGCAGAAGCGUUCACGUCGCAGCCCCUGUCAGAUACUGGUGAAUCUGCGAAUCCUGCCGUACAUCUC [U49A U67C U72C U76C] as the variant, how does the self-cleavage read?
Answer: 0.4

Question: With UAACAGGGGGCCACAGCAGAAGCGUUCACGUCGCAGCCCCUGUCAGAUACUGGUGAAUCUGCGAAUUCCGCUGUAUAUCAC [U49A U69C U80A] as the variant, how does the self-cleavage read?
Answer: 0.47

Question: With UAACAGGGGGCCACAGCAGAAGCGUUCACGUCGCAGCCCCUGUCAGAUACUGGUGAAUCUGCGAAUUCUGCAGUAUCUCUC [U49A U72A A77C] as the variant, how does the self-cleavage read?
Answer: 0.31

Question: With UAACAGGGGGCCACAGCAGAAGCGUUCACGUCGCAGCCCCUGUCAGAUACUGGUGAAUCUGCGAAUUCUGCAGUAUUUCUC [U49A U72A A77U] as the variant, how does the self-cleavage read?
Answer: 0.21

Question: For UAACAGGGGGCCACAGCAGAAGCGUUCACGUCGCAGCCCCUGUCAGAUACUGGUGAAUCUGCGAAUUCUGCCGUAUACCUC [U49A U72C U78C], which self-cleavage is on record?
Answer: 0.93

Question: With UAACAGGGGGCCACAGCAGAAGCGUUCACGUCGCAGCCCCUGUCAGAUCCUGGUGGAUCUGCGAGCUCUGCUGUAUAUCUC [U49C A56G A65G U66C] as the variant, how does the self-cleavage read?
Answer: 0.16

Question: For UAACAGGGGGCCACAGCAGAAGCGUUCACGUCGCAGCCCCUGUCAGAUCCUGGUGGAACUGCGUAUUCCGCUGUAUAUCCC [U49C A56G U58A A64U U69C U80C], which self-cleavage is on record?
Answer: 0.07

Question: With UAACAGGGGGCCACAGCAGAAGCGUUCACGUCGCAGCCCCUGUCAGAUCCUGGUGGAUCAGCGAAUUCUGCUGUAAAUCUC [U49C A56G U60A U76A] as the variant, how does the self-cleavage read?
Answer: 0.49

Question: With UAACAGGGGGCCACAGCAGAAGCGUUCACGUCGCAGCCCCUGUCAGAUCCUGGUGGAUCUGCGAAUCCUGCUGUAUAGCUC [U49C A56G U67C U78G] as the variant, how does the self-cleavage read?
Answer: 0.15

Question: With UAACAGGGGGCCACAGCAGAAGCGUUCACGUCGCAGCCCCUGUCAGAUCCUGGUGGAUCUGCGAAUUCUGCUGUAUAUCAC [U49C A56G U80A] as the variant, how does the self-cleavage read?
Answer: 1.27

Question: With UAACAGGGGGCCACAGCAGAAGCGUUCACGUCGCAGCCCCUGUCAGAUCCUGGUGUAUCUGCGUAUUCUGCUGUAUAUCUC [U49C A56U A64U] as the variant, how does the self-cleavage read?
Answer: 0.08

Question: Which self-cleavage does the source give for UAACAGGGGGCCACAGCAGAAGCGUUCACGUCGCAGCCCCUGUCAGAUCCUGGUGUAUCUGCGAAUUCAGCUGUAUAUCUC [U49C A56U U69A] here?
Answer: 0.21

Question: For UAACAGGGGGCCACAGCAGAAGCGUUCACGUCGCAGCCCCUGUCAGAUCCUGGUGUAUCUGCGAAUUCUGCCGUAAAUCUC [U49C A56U U72C U76A], which self-cleavage is on record?
Answer: 0.16

Question: Which self-cleavage does the source give for UAACAGGGGGCCACAGCAGAAGCGUUCACGUCGCAGCCCCUGUCAGAUCCUGGUGAGUCUGCGGGUUCUGCUGUAUAUCUC [U49C A57G A64G A65G] here?
Answer: 0.07

Question: For UAACAGGGGGCCACAGCAGAAGCGUUCACGUCGCAGCCCCUGUCAGAUCCUGGUGAGUCUGCGAUUUCUGCUGUAUACCUC [U49C A57G A65U U78C], which self-cleavage is on record?
Answer: 0.36

Question: Which self-cleavage does the source give for UAACAGGGGGCCACAGCAGAAGCGUUCACGUCGCAGCCCCUGUCAGAUCCUGGUGAGUCUGCGAAUUCUGCUGUAUUUCUC [U49C A57G A77U] here?
Answer: 0.21

Question: For UAACAGGGGGCCACAGCAGAAGCGUUCACGUCGCAGCCCCUGUCAGAUCCUGGUGAAUCUGCGCGUUCUGCUGUACAUCUC [U49C A64C A65G U76C], which self-cleavage is on record?
Answer: 0.14

Question: Which self-cleavage does the source give for UAACAGGGGGCCACAGCAGAAGCGUUCACGUCGCAGCCCCUGUCAGAUCCUGGUGAAUCUGCGGAUUCUGCUGUAUAUCUA [U49C A64G C81A] here?
Answer: 0.21

Question: For UAACAGGGGGCCACAGCAGAAGCGUUCACGUCGCAGCCCCUGUCAGAUCCUGGUGAAUCUGCGGACUCUGCCGUAUGUCUC [U49C A64G U66C U72C A77G], which self-cleavage is on record?
Answer: 0.1

Question: For UAACAGGGGGCCACAGCAGAAGCGUUCACGUCGCAGCCCCUGUCAGAUCCUGGUGAAUCUGCGGAUUCUGCAGUAUGUCUC [U49C A64G U72A A77G], which self-cleavage is on record?
Answer: 0.09

Question: Which self-cleavage does the source give for UAACAGGGGGCCACAGCAGAAGCGUUCACGUCGCAGCCCCUGUCAGAUCCUGGUGAAUCUGCGGAUUCUGCUGAAUAUCUC [U49C A64G U74A] here?
Answer: 0.19

Question: With UAACAGGGGGCCACAGCAGAAGCGUUCACGUCGCAGCCCCUGUCAGAUCCUGGUGAAUCUGCGGAUUCUGCUGUAUACCUC [U49C A64G U78C] as the variant, how does the self-cleavage read?
Answer: 0.1

Question: For UAACAGGGGGCCACAGCAGAAGCGUUCACGUCGCAGCCCCUGUCAGAUCCUGGUGAAUCUGCGUAAUCUGCUGUAUAUCUC [U49C A64U U66A], which self-cleavage is on record?
Answer: 0.23

Question: With UAACAGGGGGCCACAGCAGAAGCGUUCACGUCGCAGCCCCUGUCAGAUCCUGGUGAAUCUGCGUAUUCUGCUGUACAUCUC [U49C A64U U76C] as the variant, how does the self-cleavage read?
Answer: 0.16
